Results taken from patent publication US20140308201A1 (Novartis, published 2014).

T1: Human FGFR2 IIIb D1-3 (human)
T1 construct: Extracellular domains D1-3 with C-terminal tag, made in HEK293T; also called recombinant human FGFR2 IIIb; hFGFR2
T1 chain: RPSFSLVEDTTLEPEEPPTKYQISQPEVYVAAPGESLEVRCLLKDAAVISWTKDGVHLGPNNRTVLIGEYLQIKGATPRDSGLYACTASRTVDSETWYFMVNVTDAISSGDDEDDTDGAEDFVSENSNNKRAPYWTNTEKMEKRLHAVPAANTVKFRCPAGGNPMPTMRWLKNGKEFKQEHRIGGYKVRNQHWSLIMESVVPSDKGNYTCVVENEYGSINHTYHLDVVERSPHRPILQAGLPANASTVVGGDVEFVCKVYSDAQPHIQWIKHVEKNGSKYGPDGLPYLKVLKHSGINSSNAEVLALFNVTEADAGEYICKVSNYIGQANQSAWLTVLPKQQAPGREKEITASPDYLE

T2: Cynomolgus monkey FGFR2 IIIb D1-3 (cynomolgus monkey)
T2 construct: also called Cyno FGFR2 IIIb
T2 chain: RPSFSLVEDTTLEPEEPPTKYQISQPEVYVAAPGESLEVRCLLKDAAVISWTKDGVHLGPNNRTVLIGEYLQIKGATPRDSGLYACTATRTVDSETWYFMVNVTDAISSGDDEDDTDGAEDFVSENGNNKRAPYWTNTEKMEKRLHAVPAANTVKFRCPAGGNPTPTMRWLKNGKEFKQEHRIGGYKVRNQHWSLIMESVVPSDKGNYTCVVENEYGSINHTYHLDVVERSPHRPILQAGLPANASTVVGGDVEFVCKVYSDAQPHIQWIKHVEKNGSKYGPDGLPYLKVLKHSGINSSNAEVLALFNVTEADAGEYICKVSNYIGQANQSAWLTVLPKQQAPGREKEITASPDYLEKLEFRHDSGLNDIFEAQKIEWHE

B1: 11725-MCC-DM1 (other)
heavy: QVQLLESGGGLVQPGGSLRLSCAASGFTFNTYWLHWVRQAPGKGLEWVSVISSDSSSTYYADSVKGRFTISRDNSKNTLYLQMNSLRAEDTAVYYCARDSRLDYWGQGTLVTVSSASTKGPSVFPLAPSSKSTSGGTAALGCLVKDYFPEPVTVSWNSGALTSGVHTFPAVLQSSGLYSLSSVVTVPSSSLGTQTYICNVNHKPSNTKVDKRV[human IgG1 Fc cut from this listing]
light: DIELTQPPSVSVSPGQTASITCSGDSIGDTYVDWYQQKPGQAPVLVIYDDIDRPSGIPERFSGSNSGNTATLTISGTQAEDEADYYCYVYAWTGTSNVFGGGTKLTVLGQPKAAPSVTLFPPSSEELQANKATLVCLISDFYPGAVTVAWKADSSPVKAGVETTTPSKQSNNKYAASSYLSLTPEQWKSHRSYSCQVTHEGSTVEKTVAPTECS
modifications: DM1 linked through MCC (SMCC) linker to lysine residues, sites not given; DM1 linked through MCC (SMCC) linker to lysine residues, sites not given, MAR 3.4
notes: antibody drug conjugate of 11725
B2: 10164-MCC-DM1 (other)
heavy: QVQLVESGGGLVKPGGSLRLSCAASGFTFSSYALSWVRQAPGKGLEWVGRIRSKIDGGTTDYAAPVKGRFTISRDDSKNTLYLQMNSLKTEDTAVYYCARDRSPSDSSAFAIWGQGTLVTVSSASTKGPSVFPLAPSSKSTSGGTAALGCLVKDYFPEPVTVSWNSGALTSGVHTFPAVLQSSGLYSLSSVVTVPSSSLGTQTYICNVNHKPSNTKVDKRV[human IgG1 Fc cut from this listing]
light: DIELTQPPSVSVSPGQTASITCSGDNLGSQYVDWYQQKPGQAPVLVIYDDNDRPSGIPERFSGSNSGNTATLTISGTQAEDEADYYCQSWDSLSVVFGGGTKLTVLGQPKAAPSVTLFPPSSEELQANKATLVCLISDFYPGAVTVAWKADSSPVKAGVETTTPSKQSNNKYAASSYLSLTPEQWKSHRSYSCQVTHEGSTVEKTVAPTECS
modifications: DM1 linked through MCC (SMCC) linker to lysine residues, sites not given; DM1 linked through MCC (SMCC) linker to lysine residues, sites not given, MAR 3.5

Legend:
Human FGFR2 IIIb D1-3 = target: T1, Human FGFR2 IIIb D1-3; assay: SPR Biacore, method as Example 2
[1] = target: T2, Cynomolgus monkey FGFR2 IIIb D1-3; assay: SPR Biacore, method as Example 2

Binder | Kd (Human FGFR2 IIIb D1-3) [nM] | Kd [1] [nM]
B1 | 2.9 | –
B2 | – | 3.8
